This note sets out measurements from paper PMC11995724, “Antibiotic target discovery by integrated phenotypic and activity-based profiling of electrophilic fragments” (Cell chemical biology, 2025).

Each structure is given as a SMILES string. Among all 3,200 compounds or so, about 110 (3.4%) showed an effect of 50% or more. The list shows a part of the results.

This test has as its system T1, V. cholerae SAD30.
T1 construct: SAD30
On the set-up: species or system S. aureus MSSA476 (TSB) or V. cholerae SAD30 (LB); 384-well bacterial growth screen at 25 uM, OD600 relative to DMSO control. The following applies: relative growth, OD600, LB; 25 µM; inhibitor.
On to `Cc1noc(C)c1CC(=O)N1CCN(C(=O)C(C)Cl)CC1` (centres unmarked) [6-F11, 2-chloro-1-{4-[2-(3,5-dimethyl-1,2-oxazol-4-yl)acetyl]piperazin-1-yl}propan-1-one], for which the “% of control remaining” value turned out to be 90.7005%.

Take `CC(NC(=O)CCl)c1ccc2ncsc2c1` (centres unmarked) [6-A18, N-[1-(1,3-benzothiazol-6-yl)ethyl]-2-chloroacetamide]: the “% of control remaining” value is listed as 101.924%.

Turning to `CCN(CC)C(=O)/C(C#N)=C/c1cc(O)c(O)c([N+](=O)[O-])c1` [9-B04, (2E)-2-cyano-3-(3,4-dihydroxy-5-nitrophenyl)-N,N-diethylprop-2-enamide], the “% of control remaining” value stood at 89.123%.

As for `O=C(CCl)NC(c1ccccc1)c1ccco1` (centres unmarked) [4-A08, 2-chloro-N-[(furan-2-yl)(phenyl)methyl]acetamide], the “% of control remaining” value is given as 109.726%.

As for `CC(C)Oc1ccccc1C=C(C#N)C(=O)Nc1ccccc1Cl` [9-N20, N-(2-chlorophenyl)-2-cyano-3-[2-(propan-2-yloxy)phenyl]prop-2-enamide], the “% of control remaining” value was 88.3073%.

As to `COC(=O)c1ccccc1NC(=O)CCl` [5-B12, methyl 2-(2-chloroacetamido)benzoate], the “% of control remaining” value came out at 89.6081%.

Regarding `CC(Cl)C(=O)N1CCNC(=O)C1c1cccs1` (centres unmarked) [6-J17, 4-(2-chloropropanoyl)-3-(thiophen-2-yl)piperazin-2-one], the “% of control remaining” value is 93.8857%.

On to `CC(Cl)C(=O)NC1(c2ccccc2)CCOCC1` (centres unmarked) [7-A11, 2-chloro-N-(4-phenyloxan-4-yl)propanamide], for which the “% of control remaining” value is recorded as 90.9301%.

For the compound `O=C(CCl)NCc1[nH]nc2c1CCCC2` [6-E04, 2-chloro-N-[(4,5,6,7-tetrahydro-2H-indazol-3-yl)methyl]acetamide], the “% of control remaining” value was found to be 99.1942%.

For `COc1cccc([C@H]2C[C@H](N(C)C(=O)C(C)Cl)C2)c1` (some centres unmarked) [6-B17, 2-chloro-N-methyl-N-[(1r,3r)-3-(3-methoxyphenyl)cyclobutyl]propanamide], the “% of control remaining” value was 89.6388%.

As for `CC(Cl)C(=O)NC1COc2ccc(F)cc21` (centres unmarked) [7-A17, 2-chloro-N-(5-fluoro-2,3-dihydro-1-benzofuran-3-yl)propanamide], the “% of control remaining” value was found to be 83.2645%.

As to `CC(=O)N1CCc2cc(C(=O)C(C)Cl)ccc21` (centres unmarked) [10-L22, 1-(1-acetyl-2,3-dihydro-1H-indol-5-yl)-2-chloropropan-1-one], the “% of control remaining” value worked out at 100.214%.

As to `COc1cc(NC(=O)CCl)cc(OC)c1OC` [4-N12, 2-chloro-N-(3,4,5-trimethoxyphenyl)acetamide], the “% of control remaining” value is reported as 106.276%.

Turning to `COc1ccc(NC(=O)C(C)Cl)cc1OC` (centres unmarked) [6-F12, 2-chloro-N-(3,4-dimethoxyphenyl)propanamide], the “% of control remaining” value was determined as 83.7236%.

Regarding `CC(C#N)Oc1ccc(C=C(C#N)C(=O)Nc2ccccc2Cl)cc1` (centres unmarked) [9-E05, N-(2-chlorophenyl)-2-cyano-3-[4-(1-cyanoethoxy)phenyl]prop-2-enamide], the “% of control remaining” value is listed as 89.259%.

`COc1ccc(-c2csc(NC(=O)CCl)n2)c(O)c1` [4-A11, 2-chloro-N-[4-(2-hydroxy-4-methoxyphenyl)-1,3-thiazol-2-yl]acetamide]: the “% of control remaining” value worked out at 102.653%.

In the case of `Cc1csc(CN2CCN(C(=O)C(C)Cl)CC2)n1` (centres unmarked) [5-H17, 2-chloro-1-{4-[(4-methyl-1,3-thiazol-2-yl)methyl]piperazin-1-yl}propan-1-one], the “% of control remaining” value was 91.2893%.

For `COc1ccc(C2CCCN2C(=O)CCl)c(OC)c1` (centres unmarked) [4-P22, 2-chloro-1-[2-(2,4-dimethoxyphenyl)pyrrolidin-1-yl]ethan-1-one], the “% of control remaining” value was 115.247%.

As to `C=CC(=O)NCC1CCS(=O)(=O)C1(C)C` (centres unmarked) [1-O16, N-[(2,2-dimethyl-1,1-dioxo-1lambda6-thiolan-3-yl)methyl]prop-2-enamide], the “% of control remaining” value was 88.7892%.

Consider `C=CC(=O)NC(c1ccccc1)c1nc(C)no1` (centres unmarked) [1-B13, N-[(3-methyl-1,2,4-oxadiazol-5-yl)(phenyl)methyl]prop-2-enamide], for which the “% of control remaining” value was 90.1345%.

Turning to `C=CC(=O)NC1CCC(S(C)(=O)=O)C1` (centres unmarked) [3-F18, N-(3-methanesulfonylcyclopentyl)prop-2-enamide], the “% of control remaining” value is listed as 90.5017%.

In the case of `CCC(C)(C)C1CCc2c(sc(NC(=O)CCl)c2C#N)C1` (centres unmarked) [5-A05, 2-chloro-N-[3-cyano-6-(2-methylbutan-2-yl)-4,5,6,7-tetrahydro-1-benzothiophen-2-yl]acetamide], the “% of control remaining” value stood at 109.446%.

With `C=CC(=O)NCc1cc(-c2ccccc2OC)no1` [2-C18, N-{[3-(2-methoxyphenyl)-1,2-oxazol-5-yl]methyl}prop-2-enamide], the “% of control remaining” value is 94.0558%.

For `Cc1c(C=C(C#N)C(=O)NCC2(c3ccccc3)CC2)cc(C#N)n1C` [8-E22, 2-cyano-3-(5-cyano-1,2-dimethyl-1H-pyrrol-3-yl)-N-[(1-phenylcyclopropyl)methyl]prop-2-enamide], the “% of control remaining” value is on record as 81.1013%.

For `CCc1ccc(NC(=O)CCl)cc1` [4-P03, 2-chloro-N-(4-ethylphenyl)acetamide], the “% of control remaining” value was 124.218%.

For the compound `CC(Cl)C(=O)N1CCOCC1c1ncnn1Cc1ccccc1` (centres unmarked) [7-C08, 1-[3-(1-benzyl-1H-1,2,4-triazol-5-yl)morpholin-4-yl]-2-chloropropan-1-one], the “% of control remaining” value is 78.5065%.

Consider `C=CC(=O)N1CCC(NC(=O)c2oc(C)cc2C)CC1` [2-K17, 3,5-dimethyl-N-[1-(prop-2-enoyl)piperidin-4-yl]furan-2-carboxamide], for which the “% of control remaining” value was 82.0129%.

In the case of `O=C(CCl)NCc1cccc(NC(=O)C2CC2)c1` [4-D22, N-{3-[(2-chloroacetamido)methyl]phenyl}cyclopropanecarboxamide], the “% of control remaining” value is given as 119.905%.

As to `COc1cc(Cl)c(C)cc1N1C(=O)C=CC1=O` [10-B15, 1-(4-chloro-2-methoxy-5-methylphenyl)-2,5-dihydro-1H-pyrrole-2,5-dione], the “% of control remaining” value is listed as 23.534%.

Turning to `NC(=O)Cc1ccc(C(=O)CCl)s1` [10-A21, 2-[5-(2-chloroacetyl)thiophen-2-yl]acetamide], the “% of control remaining” value stood at 52.5229%.

`C=CC(=O)N1CCC(C(=O)N2CCCCC(SCC)C2)CC1` (centres unmarked) [2-P10, 1-{4-[3-(ethylsulfanyl)azepane-1-carbonyl]piperidin-1-yl}prop-2-en-1-one]: the “% of control remaining” value was found to be 100.695%.

On to `N#CC(=Cc1c2ccccc2cc2ccccc12)C(=O)NC1CCCCC1` [8-D14, 3-(anthracen-9-yl)-2-cyano-N-cyclohexylprop-2-enamide], for which the “% of control remaining” value turned out to be 51.3256%.

As for `O=C1CCc2cc(C(=O)CCl)ccc2N1` [10-M03, 6-(2-chloroacetyl)-1,2,3,4-tetrahydroquinolin-2-one], the “% of control remaining” value is 23.534%.

For `CC(C)NC(=O)C(C#N)=Cc1cccc2ccccc12` [8-P06, 2-cyano-3-(naphthalen-1-yl)-N-(propan-2-yl)prop-2-enamide], the “% of control remaining” value was 75.119%.

For the compound `C=CC(=O)NC1(c2ncon2)CCOCC1` [3-K22, N-[4-(1,2,4-oxadiazol-3-yl)oxan-4-yl]prop-2-enamide], the “% of control remaining” value was 110.263%.

As to `CC(=O)NCc1ccc(C(=O)C(C)Cl)s1` (centres unmarked) [10-M04, N-{[5-(2-chloropropanoyl)thiophen-2-yl]methyl}acetamide], the “% of control remaining” value amounted to 95.6945%.

For the compound `CC(Cl)C(=O)NC1CCN(S(=O)(=O)c2cnn(C)c2)CC1` (centres unmarked) [7-O05, 2-chloro-N-{1-[(1-methyl-1H-pyrazol-4-yl)sulfonyl]piperidin-4-yl}propanamide], the “% of control remaining” value was determined as 83.9253%.

For `COc1cc(C=C(C#N)C(=O)Nc2nccs2)cc(OC)c1O` [8-M19, 2-cyano-3-(4-hydroxy-3,5-dimethoxyphenyl)-N-(1,3-thiazol-2-yl)prop-2-enamide], the “% of control remaining” value stood at 75.3909%.

In the case of `C=CC(=O)NCc1ccnc(-n2cncn2)c1` [3-B18, N-{[2-(1H-1,2,4-triazol-1-yl)pyridin-4-yl]methyl}prop-2-enamide], the “% of control remaining” value was 109.028%.

Regarding `C=CC(=O)N[C@H](C)c1cnnn1C` [3-B11, N-[(1R)-1-(1-methyl-1H-1,2,3-triazol-5-yl)ethyl]prop-2-enamide], the “% of control remaining” value was found to be 105.852%.

In the case of `O=C(CCl)Nc1cccc(S(=O)(=O)N=C2CCCCCN2)c1` [4-D08, N-{3-[(azepan-2-ylidene)sulfamoyl]phenyl}-2-chloroacetamide], the “% of control remaining” value was determined as 107.656%.

Consider `CC(Cl)C(=O)N1CCC(c2nccn2C)C1` (centres unmarked) [6-F15, 2-chloro-1-[3-(1-methyl-1H-imidazol-2-yl)pyrrolidin-1-yl]propan-1-one], for which the “% of control remaining” value was found to be 81.1451%.

Turning to `CNC(=O)C(C#N)=Cc1ccc(F)cc1` [9-B14, 2-cyano-3-(4-fluorophenyl)-N-methylprop-2-enamide], the “% of control remaining” value turned out to be 82.7328%.

Regarding `CC(Cl)C(=O)N(C)C1CCN(C(=O)c2ccccc2)CC1` (centres unmarked) [6-B18, N-(1-benzoylpiperidin-4-yl)-2-chloro-N-methylpropanamide], the “% of control remaining” value is given as 87.5154%.

Turning to `N#Cc1ccc(OC2CN(C(=O)CCl)C2)cc1` [5-K07, 4-{[1-(2-chloroacetyl)azetidin-3-yl]oxy}benzonitrile], the “% of control remaining” value is 141.893%.

With `Cc1cc(NC(=O)CN(C)C(=O)C(C)Cl)no1` (centres unmarked) [7-M19, 2-chloro-N-methyl-N-{[(5-methyl-1,2-oxazol-3-yl)carbamoyl]methyl}propanamide], the “% of control remaining” value is recorded as 81.8107%.

Consider `Cn1c(-c2ccccc2)c(C(=O)CCl)c2ccccc21` [10-N04, 2-chloro-1-(1-methyl-2-phenyl-1H-indol-3-yl)ethan-1-one], for which the “% of control remaining” value came to 95.0711%.
